According to the RNAGym collection of RNA variant scans (doi:10.7554/elife.90254):
The source gives no read counts; variants with many changes may rest on few reads.

B1: OR4K15 (parent)
chain: GUUAACGGUCAUAGGCCAUGGAAACUAGGAGCACCAUUUCGCUGCCAGUGAAGAAAUGAACAAAGAAAAUCUGGGCCAGGCAGGCAUCAAAAGAAAUAGUCUUGCGCUCAACCAGAAAGUCUGUAAUCAUUUUAAGGGUA

Variants of: B1
Assay: self-cleavage, relative activity (ratio to wild type); higher = more cleavage; in vitro, sequencing; the parent is a self-cleaving ribozyme

| Variant | self-cleavage |
| --- | --- |
| U37C A64G A82U | 0.19 |
| U37C A69G U97G | 1.06 |
| A36G A64G A82G U108C U131C | 0.01 |
| U37A G50A A54G A64G | 1.29 |
| A36U U87C U103C A110G | 0.14 |
| U37C A62G U108C A114C | 0.01 |
| U38A C76A A96G | 0.08 |
| U37C A52G U102C A116G | 1.48 |
| A36G A56G U87G | 0.48 |
| U37C A96G A116G | 1.33 |
| U37C A59G U103C U108A | 0.02 |
| U37C U100C A117G | 2.2 |
| U38A U49C C113U U130C G136C | 0.01 |
| U37A U43C A66G | 1.18 |
| A36C U103A U132C | 0.62 |
| U38A A82G C128A U130C | 0.26 |
| U38C A54G A59G G75A | 0.31 |
| U37C U87C A110C U120A | 0.04 |
| A36G U39C A94G | 1.39 |
| U38C A52G A60G | 0.68 |
| A36U A96G A116G | 0.37 |
| U37C A78U A92G | 0.4 |
| A36G U38C A66G U124A | 1.31 |
| A36G A55G U57C | 1 |

| Variant | self-cleavage |
| --- | --- |
| U37C A69G G115A | 0.02 |
| U37C A51U A78U A111G | 0.09 |
| A36U U37C A63G U70C | 0.65 |
| A36U A56G A82G A111G | 0.01 |
| U38A A62G A94U A95G | 1.69 |
| U37C C109U U132C | 0.7 |
| U37C A67G A117U | 0.57 |
| U37C A68G A78U | 0.43 |
| U37C A47G A64G A96G A116U | 0.14 |
| U37C U87C A95U A129G U131C | 0.56 |
| U38A A52G A91G U130C | 1.61 |
| U37C U72C U103A | 0.07 |
| A36G A55U A111U U122A | 0.03 |
| A36G U38C U72A | 0.21 |
| A36U A60U A64G | 0.98 |
| U37C A64U A67G G75A A111G | 0.02 |
| U37C A55G A129C | 0.85 |
| A36U A52G A68U G83A U87C U127C U131C | 0.4 |
| A36G G79A U122C | 0.11 |
| C35U U87A U131C | 0.72 |
| U37G U39A U70A | 1.37 |
| U37C U43C A56C A114U | 0.03 |
| U37C U49A A135U | 1.7 |
| A36G A59G U131A | 0.86 |

| Variant | self-cleavage |
| --- | --- |
| U37C U70C A98G U108C | 0.01 |
| U37C G44A A60G A63G | 1.53 |
| A36U U43A A116G | 1.25 |
| U37C U38A U130A | 1.05 |
| U37C A51G A63G U122C A125U | 0.2 |
| U37C A62C A82U A129U U130C | 0.12 |
| U38C A51G A78G A92G A95G A126G | 0.12 |
| A36C A94U U100A A129C | 0.51 |
| A36C U37C U49C A68G A116G | 1.13 |
| A36G U43A A47G A56G | 1.85 |
| A36U U102C A111C | 0.01 |
| A36G A89G A116G | 1.26 |
| U37G A51G C128U | 1.78 |
| U37C U38C A67G C85U | 0.73 |
| U37C U49C A118C | 0.32 |
| A36G A52U A90G A114U | 0.07 |
| U37C U100A A111G A129G | 0.01 |
| A36G U38C A47G A78U | 0.53 |
| A36G A114U U133C | 0.09 |
| U37C U57A U87C | 0.18 |
| A36U U122C A126U | 1.36 |
| U38A C76A A92G | 0.26 |
| A36U A111G U122C | 0 |
| U38A A96G U122A A126G | 1.38 |

| Variant | self-cleavage |
| --- | --- |
| U37C A94G A95G G137U | 2.41 |
| U37C A52G A67G A95G | 2.45 |
| A36U A68G U72C U108C | 0.01 |
| U37C U38C U43C A60G U108C U130C | 0.02 |
| U37C A47G A96G | 0.41 |
| A36G A62G A89U U108C A110G | 0.01 |
| U38A A56G A59U | 0.91 |
| U37C U72A A92G | 0.4 |
| A36U A52G A95G U103C U108C U122C U131C | 0 |
| U37C A52G U139C | 1.85 |
| A36U U37C U120C G137A | 1.74 |
| A36C U43C U87C | 1.85 |
| U38C A51G A55G U139C | 0.62 |
| A36G A52G A129G U132C | 1.39 |
| U38A A62G A117G U122C | 1.74 |
| U38A A64U C128A | 0.93 |
| U37C U49C A63G A118C | 1.09 |
| U37G U43A U87C G136A | 1.55 |
| U37C A56G U108C U122A | 0.01 |
| A36U A82G U108C | 0.01 |
| U37C A66G A91G U139C | 1.86 |
| U37C A47G A68C U87C A126G | 1.01 |
| U38C A51G A52G A78G | 0.59 |
| A36G C40U U122C | 0.85 |

| Variant | self-cleavage |
| --- | --- |
| A36U U87C A90G A111U | 0.05 |
| A36U A51G U103C | 1.06 |
| U38A A60G U102C | 2.19 |
| A36G A47G A54G | 0.78 |
| U38C A54G A64G A78U | 0.4 |
| U38C A55G A92G U127C | 0.95 |
| C35U U87C A91G A98G A114G | 0.36 |
| A36U A51G A82G A90G | 0.29 |
| U37C G44A A110G | 0.11 |
| A36G A82G A94G U103C | 2.73 |
| U37C A68G A92G A117G | 1.08 |
| U38C A52G A59G A63G A67G U108C U127C | 0.01 |
| U38C A52G A69U A82G A89G U120C | 0.32 |
| U37C G41U A55G A111G A114G | 0.01 |
| U38A A54G A91G U120C U127C | 0.16 |
| A36G U103A A118G | 0.73 |
| A36U U57G U132C | 1.67 |
| U37G U38G A55G A86U A89G | 0.85 |
| A36U U37C A82C A94G | 0.1 |
| A36C U97C A118G | 1.79 |
| U37C U43A A82U G115U | 0.13 |
| U38C A56G A64G U108C | 0.01 |
| U37C U72A C76U U100C A126G | 0.11 |
| A36U A55G A90G A96G | 0.81 |

| Variant | self-cleavage |
| --- | --- |
| U37C A59G A86G U127C | 0.73 |
| A36G A68G A69G A78G C109U | 0.12 |
| U38C A51G A66U A135G | 1.83 |
| A36G U37C G119A A140G | 1.82 |
| U37C U38C A78G | 0.23 |
| U37C A51U A60G | 1.68 |
| A36U A52U U100C | 2.21 |
| A36U A60U C71A A116G | 0.19 |
| U38A A47U A64C A94U U102C U108C | 0.01 |
| A36G U49C A67G | 1.49 |
| U37C A86G A90G U100A U132C | 0.21 |
| U37C A78G A98G U139C | 0.09 |
| U37C C40A A54G A67G G75C | 0.14 |
| A36U A59G G115A U122C | 0.11 |
| A36U U103C U124C U131C | 0.33 |
| U38A A60G U87A | 1.18 |
| U37C A68G U97A | 1.94 |
| U37C U100C A118G U122C | 1.04 |
| U37C A51G A54G A126G | 0.88 |
| U37C A92G U102A U131C | 0.56 |
| U37C U43C A91G U133C | 1.41 |
| U38A A59U A62G U122A | 2.15 |
| A36G U43C A64G U139C | 2.21 |
| A36G A68G A129U | 1.11 |

| Variant | self-cleavage |
| --- | --- |
| A36C C46U U132A | 1.91 |
| U38C A54G U72A | 0.17 |
| U37C A96G U122C U133A | 1.46 |
| A36G A69G U108C A117G | 0 |
| A36G U37G U87A A91G U100A U124C | 0.15 |
| U37C A51G A98G G136A | 1.12 |
| A36G U87A A91G | 1.09 |
| U38C A51G A64G | 1.49 |
| U37C A51G A67U A118G | 0.55 |
| U38A A64G A90G U122A | 0.19 |
| A36C A56G A125U | 1.61 |
| U37C A68G U124C A125G | 0.63 |
| U37C C71U U108C U130C | 0.01 |
| U37C G41U A63G A95U | 2.02 |
| U38C A54G U72C A95G U124C | 0.06 |
| U37C A59G G73A U130C | 0.15 |
| U37C A92G U103C | 1.31 |
| U37C A117U U127A | 1.29 |
| U37C A66G A92G U124C U139C | 0.32 |
| U37A A117G U122A | 2.2 |
| U37C U87A U108C | 0.01 |
| A36C A94G U122C | 1.78 |
| A36G A52G A69G U70C | 0.71 |
